From PubChem BioAssay AID1159614 (National Center for Advancing Translational Sciences (NCATS), 2016)
The whole screen tested about 45,000 compounds, of which about 65 (0.1%) were called active. The call rests on the fitted dose curve; in most records, active means well fitted activation curve with a large enough effect; inconclusive means small, poorly fitted or top-dose-only effect; inactive means no such curve, though single readings can be large or run the other way. This is one part of the list.

What follows are compounds tested against Galactocerebrosidase (Homo sapiens) (UniProt P54803) (assay: A Novel Cell-Based Assay to Identify Small Molecules for B -Galactocerebrosidase). Settings: 145M-Twi-hGALC-G270D cells (Twitcher mouse brain line with human GALC G270D), HMU-beta-Gal fluorescence, 48 h; series mostly up to 57.5 µM; activation: at the top concentration.
Description: Lysosomal storage diseases (LSDs) are caused by genetic mutations in genes encoding proteins important for normal lysosomal function. Globoid cell leukodystrophy (GLD), mostly known as Krabbe disease, is a prototype of the neurological LSDs caused by deficiency of beta-galactocerebrosidase (GALC). In brain specimens of GLD patients, psychosine levels are substantially elevated. At elevated concentrations, psychosine becomes cytotoxic to neuronal cells, particularly to oligodendrocytes (OLG), neural cells responsible for myelin formation. Therefore, the biochemical disturbances in GLD are manifested by different degrees of brain demyelination resulting in a broad spectrum of neurological manifestations. Most of the FDA-approved therapies are based on enzyme replacement therapeutic (ERT) agents, which treat non-neurological symptoms of Gaucher disease, Fabry disease, few mucopolysaccharidoses and Pompe disease. Unfortunately, in GLD, a primarily neurological LSD, ERT agents, as large molecular weight molecules unable to cross the blood-brain barrier, which makes this an inefficacious therapeutic approach. In GLD, increasing the residual GALC activity just above the critical threshold (~10% of wild type enzymatic activity), the cytotoxic levels of psychosine will be reduced, avoiding the OLGs apoptosis and the subsequent demyelination process. This will translate in disease stabilization and amelioration of GLD patient symptoms.
A cell-based assay in 1,536-well plate format was developed to implement a quantitative high-throughput screening (qHTS) assay using GLD-disease relevant cells to identify small molecules that produce enhancements of the residual enzymatic activity levels of mutants GALC found and prevalent in GLD patients. Compounds that are active may therefore have some therapeutic application for GLD. After the treatment of live cells for a determined period, using a fluorescent GALC specific substrate, the mutant residual GALC activity is measured. This cell-based qTHS assay was used to screen part of the MLPCN library for small molecule able to increase the mutant GALC enzymatic activity. In this assay, increased fluorescent signal corresponds to enhanced levels of mutant GALC residual enzymatic activity. Activation is the desired outcome for this assay.
NIH Chemical Genomics Center [NCGC]
NIH Molecular Libraries Probe Centers Network [MLPCN]
Assay Submitter (PI): Gustavo Maegawa MD,PhD, University of Florida, Gainesville, FL
2)#Two cell lines were established for the assay: 145M-Twi-hGALC-G270D (brain-derived Twitcher cell line stably expressing human GALC-G270D) and 145M-Twi-hGALC-WT (same 145M-Twi stably expressing human GALC wild type). The Twitcher is the murine C57B/6 model for GLD with naturally occurring homozygous nonsense GALC mutation. The 145M-Twi cell line was established at Maegawa lab (Ribbens J et al 2014).
a.#Media: DMEM/F12 (1:1) with 10% fetal bovine-serum (FBS) with penicillin/streptomycin (PS-1X - 100 I.U./mL of penicillin+100 ug/mL of streptomycin).
b.#The 6-Hexadecanoylamino-4-methylumbelliferyl-b-D-galactoside (HMU-B-gal) substrate was prepared as per Wiederschain et al 1992. Using 20-mL borosilicate tubes, 2.20 mg of HMU-b-Gal was added in each tube to prepare substrate-film with a final air-nitrogen stream evaporation to remove all diluent solvents.
c.#The HMUb-Gal substrate buffer consists of 0.2 M Na2HPO4 (sodium phosphate dibasic)/ 0.1 M Citric Acid with the pH adjusted to 5.2 using HCl. Sodium Azide at 0.02% and Sodium Taurocholate (NaTC) at 1 mg/mL were added to this substrate buffer.
d.#The HMU-b-Gal stopping buffer consist of 0.5 M NaHCO3 (sodium bicarbonate) /0.5 M Na2CO3 (sodium carbonate). […] Triton X-100 at 0.25% was added.
4)#Preparation of HMU-b-Gal substrate tubes
Adding 18.6 mL of the HMUb-Gal substrate buffer to each 20-mL tube (2.20 mg of HMU-b-Gal) will reach a concentration of 0.2 mM. Vortex well the tube until the solution is fully homogenized (clear cloudy solution). […]
Further: 0% is about no effect; nearly all actives have a fitted effect of over 65% in size.

Chain of UniProt P54803 (P54803 whole entry, looked up): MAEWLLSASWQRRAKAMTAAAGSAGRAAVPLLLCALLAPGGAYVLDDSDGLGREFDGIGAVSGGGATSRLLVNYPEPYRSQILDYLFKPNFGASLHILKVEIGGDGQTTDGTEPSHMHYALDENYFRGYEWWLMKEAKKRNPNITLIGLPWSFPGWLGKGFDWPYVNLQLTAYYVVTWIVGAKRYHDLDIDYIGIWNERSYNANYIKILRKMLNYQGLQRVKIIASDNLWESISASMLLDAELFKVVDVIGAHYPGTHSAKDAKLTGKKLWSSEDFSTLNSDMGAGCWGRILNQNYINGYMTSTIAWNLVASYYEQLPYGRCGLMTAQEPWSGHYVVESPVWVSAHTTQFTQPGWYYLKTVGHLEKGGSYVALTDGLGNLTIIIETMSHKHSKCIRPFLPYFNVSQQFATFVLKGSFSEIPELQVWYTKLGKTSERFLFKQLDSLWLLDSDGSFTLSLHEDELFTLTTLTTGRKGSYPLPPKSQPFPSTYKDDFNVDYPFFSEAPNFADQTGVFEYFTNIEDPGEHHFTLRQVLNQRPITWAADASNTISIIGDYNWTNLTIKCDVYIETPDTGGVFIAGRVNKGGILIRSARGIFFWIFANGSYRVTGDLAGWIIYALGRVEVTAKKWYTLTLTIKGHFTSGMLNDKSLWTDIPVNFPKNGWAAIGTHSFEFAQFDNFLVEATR

SMILES | activation
COc1ccc(/C=C(\NC(=O)c2ccccc2)C(=O)NC2CCCCC2)cc1 | inactive: -5.58%
Cc1cc(C)cc(N(CC(=O)Nc2ccc(C(F)(F)F)cc2)S(=O)(=O)c2c(C)[nH]c(=O)[nH]c2=O)c1 | inactive: -13.8%
CCCCn1cnc2cc(NC(=O)c3cc(OC)c(OC)c(OC)c3)ccc21 | inactive: -23.1%
CCCC(=O)N(c1ccc2oc3c(c2c1)CCCC3)S(=O)(=O)c1ccc(CC)cc1 | inactive: -18.5%
COc1cccc(CNC(=O)C2CCC(CNS(=O)(=O)c3cccs3)CC2)c1 (stereo not drawn) | inactive: -11.5%
O=c1c(S(=O)(=O)c2ccccc2)cn(Cc2ccc(F)cc2)c2cc(N3CCCC3)c(F)cc12 | inactive: -10.1%
COc1ccc(NCc2nc3ccccc3n2CCOc2ccccc2C)cc1 | inactive: -7.36%
Cc1ccccc1NC(=O)c1ccc(NC(=O)N2CCSc3ncccc32)cc1 | inactive: -14.4%
COc1ccc(OC)c(-n2c(=O)[nH]c3cc(C(=O)NCCc4ccc(OC)c(OC)c4)ccc3c2=O)c1 | inactive: 2.18%
CC1CCN(S(=O)(=O)c2ccc3c(c2)N(CC(=O)NCc2ccccc2Cl)C(=O)CO3)CC1 | inactive: 3.38%
COc1cccc(NC(=O)c2sc(-n3nc(C)c(Cc4ccccc4Cl)c3C)nc2C)c1 | inactive: -2.76%
Cc1ccc(CNS(=O)(=O)c2ccc(F)c(C(=O)Nc3ccc(C)c(F)c3)c2)cc1 | inactive: -17.8%
Cc1ccc(N(C)C(=O)Cn2nc(Cc3ccncc3)c3ccccc3c2=O)cc1C | inactive: 2.24%
COCCn1c(C)cc(O)c(C(c2ccccc2)N2CCN(c3ccc(F)cc3)CC2)c1=O (stereo not drawn) | inactive: 8.74%
COC(=O)c1c(SC)nc2ccccc2c1OCc1cccc(C)c1 | inactive: -10%
O=C(NCCS(=O)(=O)N1CCN(c2ccccc2F)CC1)c1cc(=O)c2ccccc2o1 | inactive: -2.17%
O=C(Nc1ccc(F)cc1)c1ccc(-n2cnc3cccnc32)cc1 | inactive: -30.4%
O=C(NCCc1ccc(Cl)cc1)c1ccc(CS(=O)(=O)Cc2ccc(F)cc2)o1 | inactive: -14.5%
CCC(CC)C(=O)Nc1cccc(-c2nc3cccnc3s2)c1 | inactive: -6.58%
COc1cccc(COC(=O)c2nn(-c3ccccc3)nc2N)c1 | inactive: 8.15%
Cc1ccc(CNC(=O)C2CCN(c3nn4cc(-c5ccc(F)cc5)nc4s3)CC2)cc1 | inactive: -11%
CCOC(=O)c1[nH]c(C)c(CCC(=O)Nc2cc(Cl)ccc2C)c1C | inactive: -10.3%
CCN(CC)c1ccc(NC(=O)CCS(=O)(=O)c2cccc3nsnc23)c(C)c1 | inactive: -17.8%
COc1ccc(C(=O)NCC(c2cccnc2)N2CCc3ccccc3C2)cc1 (stereo not drawn) | inactive: -12.2%

SMILES | activation
COc1ccccc1CCNC(=O)c1cc2c(=O)n3cccc(C)c3nc2n1C | inactive: -9.05%
Cc1csc2nc(COC(=O)c3ccccc3NC(=O)c3ccccc3Cl)cc(=O)n12 | inactive: -11.1%
CNC(=O)C1CCC(Cn2c(=O)c3sccc3n(Cc3ccccc3)c2=O)CC1 (stereo not drawn) | inactive: -11.6%
CCc1ccc(NC(=O)N2CC=C(c3c[nH]c4ccccc34)CC2)cc1 | inactive: -4.61%
COc1cc(OC)c(NC(=O)C(C)n2c(=O)cc(-c3ccccc3)c3c(C)nn(C)c32)cc1Cl (stereo not drawn) | inactive: -4.53%
CCOc1ccc(-c2nc(Cn3c(=O)cc(-c4ccccc4)c4c(C)nn(C)c43)c(C)o2)cc1OC | inactive: -0.88%
Cc1ccccc1NC(=O)CSc1ncc2c(n1)-c1ccccc1N(C)S2(=O)=O | inactive: -13%
CCOc1ccccc1NC(=O)c1c(NC(=O)C(C)Oc2cccc(Cl)c2)sc2c1CCCCC2 (stereo not drawn) | inactive: -2.08%
Cc1cc(C)c2c(n1)nn1c(C)c(CCC(=O)Nc3ccc(C)c(Cl)c3)c(C)nc21 | inactive: 5.12%
Cc1cn2c(=O)cc(COC(=O)c3cccc(NC(=O)C(C)Oc4ccccc4)c3)nc2s1 (stereo not drawn) | inactive: -6.57%
CCSC1=NC2(CCN(C(=O)NC3CCCCC3)CC2)N=C1c1ccc(C)cc1 | inactive: -12.2%
Cc1cc(S(=O)(=O)Nc2cc3c(cc2C)n(C)c(=O)c(=O)n3C)ccc1F | inactive: -3.22%
COc1ccc(Nc2cc(C(=O)NCCCN(C)Cc3ccccc3)c3ccccc3n2)cc1OC | inactive: 10.6%
COc1cccc(OCc2nc3ccccc3n2Cc2ccccc2)c1 | inactive: -14.8%
COc1cccc(CNC(=O)C(=O)NCC(c2cccs2)S(=O)(=O)c2cccs2)c1 (stereo not drawn) | inactive: -9.45%
COc1ccc(-n2nc3cc(C)c(NC(=O)COc4cccc(C)c4)cc3n2)cc1 | inactive: 12.3%
Cc1cccc(S(=O)(=O)c2cn(Cc3ccccc3)c3cc(N4CCC(C)CC4)c(F)cc3c2=O)c1 | inactive: -22.7%
CC1=C(C(=O)Nc2ccc(Cl)cc2)C(c2cccs2)n2nc(SCc3cccc(Cl)c3)nc2N1 (stereo not drawn) | inactive: 5.42%
CCn1c(Oc2ccc(F)cc2F)nc2c1c(=O)n(C)c(=O)n2C | inactive: -11.3%
CCOc1ccc(CC(=O)Nc2c(C(=O)c3ccc(Cl)cc3)oc3ccccc23)cc1OCC | inactive: -14.8%
CCc1cc2c(cc3c(=O)n(CC(=O)NCc4cccc(Cl)c4)nc(CC)n32)s1 | inactive: -10.1%
CCC1=Nc2cc(C(=O)NCCc3ccccc3)ccc2Sc2ccc(Cl)cc21 | inactive: -16.1%
COC(=O)c1ccc(NC(=O)c2cc3cc(C)ccc3n2C)cc1 | inactive: -22.3%
COc1ccc(NC(=O)CSc2nc3ccccc3n2CC(=O)NCc2ccc(F)cc2)cc1 | inactive: -16.8%
